Reference: patent EP0545103A1, “Insecticidal, acaricidal and molluscicidal 1-(substituted) thioalkylpyrroles” (priority 1991, dated 1993)
The name of at least one read-out is uncertain.

Key:
Format in all cases: in vivo
[1] = test system: Empoasca abrupta, adult, western potato leafhopper; experiment: Western potato leafhopper contact test, dipped limabean leaf
Experimental: (§1) Test solutions are prepared by dissolving the test compound in a 35% acetone in water mixture to give a concentration of 10,000 ppm. Subsequent dilutions are made with water as needed.
Empoasca abrupta, adult, western potato leafhopper
A Sieva limabean leaf about 5 cm long is dipped in the test solution for 3 seconds with agitation and placed in a hood to dry. The treated leaf is placed in a 100 x 10 mm petri dish containing a moist filter paper and about 10 adult leafhoppers are added. After 2 days, mortality counts are made.
(§2) All of the above tests are rated according to the rating scale shown below.

[2] = test system: Spodoptera eridania, 3rd instar larvae, southern armyworm; experiment: Southern armyworm 3rd instar test, dipped limabean leaf; conditions: for ARMYWORM Day 3: rating at 3 days; for ARMYWORM Day 5: rating at 5 days
Experimental: as §1
Spodoptera eridania, 3rd instar larvae, southern armyworm
A Sieva limabean leaf expanded to 7-8 cm in length is dipped in the test solution with agitation for 3 seconds and allowed to dry in a hood. The leaf is then placed in a 100 x 10 mm petri dish containing a damp filterpaper on the bottom and ten 3rd instar caterpillars. At 3 and 5 days, observations are made of mortality, reduced feeding, or any interference with normal molting.
as §2

[3] = test system: Tetranychus urticae (OP-resistant strain), 2-spotted spider mite; experiment: 2-spotted spider mite test, dipped infested limabean plants; conditions: mortality rating after 2 days
Experimental: as §1
Tetranychus urticae (OP-resistant strain), 2-spotted spider mite
Sieva limabean plants with primary leaves expanded to 7-8 cm are selected and cut back to one plant per pot. A small piece is cut from an infested leaf taken from the main colony and placed on each leaf of the test plants. This is done about 2 hours before treatment to allow the mites to move over to the test plant and to lay eggs. The size of the cut, infested leaf is varied to obtain about 100 mites per leaf. At the time of test treatment, the piece of leaf used to transfer the mites is removed and discarded. The newly mite-infested plants are dipped in the test solution for 3 seconds with agitation and set in the hood to dry. After 2 days one leaf is removed and mortality counts are made. After 5 days, another leaf is removed and observations are made of mortality of the eggs and/or newly emerged nymphs.
as §2

[4] = test system: Diabrotic undecimpunctata howardi, 3rd instar southern corn rootworm; experiment: Southern corn rootworm soil test; conditions: mortality rating after 6 days
Experimental: Diabrotic undecimpunctata howardi, 3rd instar southern corn rootworm
One cc of fine talc is placed in a 30 mL wide-mouth screw-top glass jar. One mL of the appropriate acetone test solution is pipetted onto the talc so as to provide 1.25 and 0.25 mg of active ingredient per jar. The jars are set under a gentle air flow until the acetone is evaporated. The dried talc is loosened, 1 cc of millet seed is added to serve as food for the insects and 25 mL of moist soil is added to each jar. The jar is capped and the contents thoroughly mixed on a Vortex Mixer. Following this, ten 3rd instar rootworms are added to each jar and the jars are loosely capped to allow air exchange for the larvae. The treatments are held for 6 days when mortality counts are made. Missing larvae are presumed dead, since they decompose rapidly and can not be found. The concentrations used in this test correspond approximately to 50 and 10 kg/ha, respectively.
as §2

[5] = test system: Heliothis virescens, 3rd instar tobacco budworm; experiment: Tobacco budworm 3rd instar test, dipped cotton cotyledons; conditions: mortality rating after 3 days
Experimental: as §1
Heliothis virescens, 3rd instar tobacco budworm
Cotton cotyledons are dipped in the test solution and allowed to dry in a hood. When dry, each is cut into quarters and ten sections are placed individually in 30 mL plastic medicine cups containing a 5-7mm long piece of damp dental wick. One 3rd instar caterpillar is added to each cup and the cup is sealed with MYLAR® film. Treatments are maintained for 3 days before a mortality count and observation of reduction in feeding damage are made.
as §2

Row | Structure (SMILES) | ARMYWORM Day 5 ([2]; 10 ppm) | ARMYWORM Day 5 ([2]; 100 ppm) | ARMYWORM Day 5 ([2]; 1000 ppm) | SOUTHERN CORN ROOTWORM ([4]; 10 (ppm as headed)) | SOUTHERN CORN ROOTWORM ([4]; 50 (ppm as headed)) | TOBACCO BUDWORM 3rd Instar ([5]; 100 ppm) | TOBACCO BUDWORM 3rd Instar ([5]; 1000 ppm) | TOBACCO BUDWORM 3rd Instar ([5]; 10 ppm) | also measured
1 | N#Cc1c(Cl)c(C(F)(F)F)n(CSC2=NCCCN2)c1-c1ccc(Cl)cc1 [Example 5] | 4 (46-55% kill) | 9 (100% kill) | 9 (100% kill) |  |  |  |  |  | LEAFHOPPER Contact ([1]; 10 ppm, mortality rating after 2 days): 4 (46-55% kill); LEAFHOPPER Contact ([1]; 100 ppm, mortality rating after 2 days): 9 (100% kill); ARMYWORM Day 3 ([2]; 10 ppm): 4 (46-55% kill); ARMYWORM Day 3 ([2]; 100 ppm): 9 (100% kill); ARMYWORM Day 3 ([2]; 1000 ppm): 9 (100% kill); OP-RESISTANT MITES Adult ([3]; 100 ppm): 8 (86-99% kill); OP-RESISTANT MITES Adult ([3]; 300 ppm): 9 (100% kill)
2 | N#Cc1c(Br)c(C(F)(F)F)n(CSc2nc3ccccc3o2)c1-c1ccc(Cl)cc1 [Example 6] | 5 (56-65% kill) | 9 (100% kill) | 9 (100% kill) | 5 (56-65% kill) | 9 (100% kill) | 8 (86-99% kill) | 9 (100% kill) |  | 
3 | CCN=C(NCC)SCn1c(-c2ccc(Cl)cc2)c(C#N)c(Br)c1C(F)(F)F [Example 12] |  |  |  | 9 (100% kill) | 8 (86-99% kill) | 9 (100% kill) | 9 (100% kill) | 8 (86-99% kill) | LEAFHOPPER Contact ([1]; 10 ppm, contact, rating scale 0-9): 5 (56-65% kill); LEAFHOPPER Contact ([1]; 100 ppm, contact, rating scale 0-9): 9 (100% kill)
4 | CC(C)OC(=S)SCn1c(-c2ccc(Cl)cc2)c(C#N)c(Cl)c1C(F)(F)F [Example 22] |  |  |  | 8 (86-99% kill) | 9 (100% kill) | 9 (100% kill) | 9 (100% kill) | 3 (36-45% kill) | SOUTHERN CORN ROOTWORM ([4]; 1 (ppm as headed)): 3 (36-45% kill)
5 | CCOC(=S)SCn1c(-c2ccc(Cl)cc2)c(C#N)c(Cl)c1C(F)(F)F [Example 23] |  |  |  | 6 (66-75% kill) | 9 (100% kill) | 9 (100% kill) | 9 (100% kill) | 5 (56-65% kill) | 
6 | CCN(CC)C(=S)SCn1c(-c2ccc(Cl)cc2)c(C#N)c(Br)c1C(F)(F)F [Example 26] |  |  |  | 4 (46-55% kill) | 9 (100% kill) |  |  |  | 
